{"source": "paper PMC11995724", "about": "“Antibiotic target discovery by integrated phenotypic and activity-based profiling of electrophilic fragments” (Cell chemical biology, 2025)", "note": "Among all 3,200 compounds or so, about 75 (2%) showed an effect of 50% or more. The list shows a part of the results."}
{"system": "T1, S. aureus MSSA476", "T1 construct": "MSSA476", "set-up": "species or system S. aureus MSSA476 (TSB) or V. cholerae SAD30 (LB); 384-well bacterial growth screen at 25 uM, OD600 relative to DMSO control", "conditions": "relative growth, OD600, TSB; 25 µM; inhibitor", "units": {"% of control remaining": "%"}}
{"smiles": "C=CCNC(=O)C(C#N)=Cc1cccc(O)c1", "note": "[9-B09, 2-cyano-3-(3-hydroxyphenyl)-N-(prop-2-en-1-yl)prop-2-enamide]", "% of control remaining": 103.67}
{"smiles": "Cc1cc(-n2c(C)cc(C(=O)CCl)c2C)no1", "note": "[10-C18, 2-chloro-1-[2,5-dimethyl-1-(5-methyl-1,2-oxazol-3-yl)-1H-pyrrol-3-yl]ethan-1-one]", "% of control remaining": 123.125}
{"smiles": "O=C(CCl)c1ccc(C(F)(F)F)cc1", "note": "[10-B10, 2-chloro-1-[4-(trifluoromethyl)phenyl]ethan-1-one]", "% of control remaining": 135.938}
{"smiles": "C=CC(=O)Nc1ccc(Cl)cc1F", "note": "[1-I10, N-(4-chloro-2-fluorophenyl)prop-2-enamide]", "% of control remaining": 113.582}
{"smiles": "CCCCNC(=O)C(C#N)=Cc1ccc(F)cc1", "note": "[9-P13, N-butyl-2-cyano-3-(4-fluorophenyl)prop-2-enamide]", "% of control remaining": 104.569}
{"smiles": "CCC(NC(=O)CCl)c1ccc(Cl)cc1", "note": "(centres unmarked) [6-O10, 2-chloro-N-[1-(4-chlorophenyl)propyl]acetamide]", "% of control remaining": 94.5854}
{"smiles": "C=CC(=O)N1CCC(C(=O)NCc2nc(C)c(C)s2)CC1", "note": "[3-B12, N-[(4,5-dimethyl-1,3-thiazol-2-yl)methyl]-1-(prop-2-enoyl)piperidine-4-carboxamide]", "% of control remaining": 135.481}
{"smiles": "N#CC(=CC=Cc1ccccc1[N+](=O)[O-])C(N)=O", "note": "[8-F19, 2-cyano-5-(2-nitrophenyl)penta-2,4-dienamide]", "% of control remaining": 105.228}
{"smiles": "CCOc1ccc(NC(=O)C(C)Cl)cc1", "note": "(centres unmarked) [6-O09, 2-chloro-N-(4-ethoxyphenyl)propanamide]", "% of control remaining": 87.4146}
{"smiles": "C=CC(=O)NCc1cnc(C)n1-c1ccccc1", "note": "[2-F19, N-[(2-methyl-1-phenyl-1H-imidazol-5-yl)methyl]prop-2-enamide]", "% of control remaining": 112.446}
{"smiles": "CCc1ccc(NC(=O)C(C#N)=Cc2ccc(F)c(C#N)c2)cc1", "note": "[8-M20, 2-cyano-3-(3-cyano-4-fluorophenyl)-N-(4-ethylphenyl)prop-2-enamide]", "% of control remaining": 59.4191}
{"smiles": "C=CC(=O)N1CCC[C@H]1Cn1cc(C2CC2)nn1", "note": "[1-L18, 1-[(2S)-2-[(4-cyclopropyl-1H-1,2,3-triazol-1-yl)methyl]pyrrolidin-1-yl]prop-2-en-1-one]", "% of control remaining": 115.341}
{"smiles": "C=CC(=O)N(C[C@H]1CCCO1)C1CCC(CC)CC1", "note": "(stereo partly drawn) [1-D03, N-(4-ethylcyclohexyl)-N-{[(2R)-oxolan-2-yl]methyl}prop-2-enamide]", "% of control remaining": 78.4176}
{"smiles": "Cc1cccc(N(Cc2ccccc2)C(=O)CCl)c1", "note": "[6-O07, N-benzyl-2-chloro-N-(3-methylphenyl)acetamide]", "% of control remaining": 98}
{"smiles": "C=CC(=O)N1CCC(Cc2ccnn2C)CC1", "note": "[2-C19, 1-{4-[(1-methyl-1H-pyrazol-5-yl)methyl]piperidin-1-yl}prop-2-en-1-one]", "% of control remaining": 106.876}
{"smiles": "C=CC(=O)Nc1ccccc1CCSC", "note": "[1-A19, N-{2-[2-(methylsulfanyl)ethyl]phenyl}prop-2-enamide]", "% of control remaining": 114.286}
{"smiles": "CCn1nc(C)c(C=C(C#N)C(=O)Nc2ccccc2Cl)c1C", "note": "[9-F07, N-(2-chlorophenyl)-2-cyano-3-(1-ethyl-3,5-dimethyl-1H-pyrazol-4-yl)prop-2-enamide]", "% of control remaining": 116.554}
{"smiles": "C=CC(=O)N(C)Cc1c(C)nn(C)c1Cl", "note": "[1-C15, N-[(5-chloro-1,3-dimethyl-1H-pyrazol-4-yl)methyl]-N-methylprop-2-enamide]", "% of control remaining": 104.791}
{"smiles": "C=CC(=O)N1CCN(C(=O)c2ccc(OC)c(OC)c2OC)CC1", "note": "[1-H12, 1-[4-(2,3,4-trimethoxybenzoyl)piperazin-1-yl]prop-2-en-1-one]", "% of control remaining": 128.352}
{"smiles": "O=C(CCl)C1CC12CCOCC2", "note": "(centres unmarked) [10-M15, 2-chloro-1-{6-oxaspiro[2.5]octan-1-yl}ethan-1-one]", "% of control remaining": 120.625}
{"smiles": "CCN(C(=O)C(C)Cl)C1CCCCC1", "note": "(centres unmarked) [5-I19, 2-chloro-N-cyclohexyl-N-ethylpropanamide]", "% of control remaining": 97.9964}
{"smiles": "O=C(CCl)N1CC(S(=O)(=O)Nc2ccccc2)C1", "note": "[5-G10, 1-(2-chloroacetyl)-N-phenylazetidine-3-sulfonamide]", "% of control remaining": 114.026}
{"smiles": "Cc1c(C=C(C#N)C(=O)NCc2ccccc2)cc(C#N)n1C", "note": "[9-I15, N-benzyl-2-cyano-3-(5-cyano-1,2-dimethyl-1H-pyrrol-3-yl)prop-2-enamide]", "% of control remaining": 88.6891}
{"smiles": "Cn1c(=O)c(C(=O)CCl)c(N)n(Cc2ccccc2)c1=O", "note": "[10-L15, 6-amino-1-benzyl-5-(2-chloroacetyl)-3-methyl-1,2,3,4-tetrahydropyrimidine-2,4-dione]", "% of control remaining": 138.125}
{"smiles": "Cc1ccc(NC(=O)CCl)cc1[N+](=O)[O-]", "note": "[4-M13, 2-chloro-N-(4-methyl-3-nitrophenyl)acetamide]", "% of control remaining": 77.3702}
{"smiles": "CCn1cc(NC(=O)CCl)cn1.Cl", "note": "[6-I15, 2-chloro-N-(1-ethyl-1H-pyrazol-4-yl)acetamide hydrochloride]", "% of control remaining": 103.805}
{"smiles": "O=C(CCl)NCc1ccccc1SC(F)(F)F", "note": "[7-N12, 2-chloro-N-({2-[(trifluoromethyl)sulfanyl]phenyl}methyl)acetamide]", "% of control remaining": 86.3422}
{"smiles": "C=CC(=O)N(C)CC(=O)Nc1ccc(N2C[C@@H](C)O[C@@H](C)C2)cc1", "note": "[3-H08, N-[({4-[(2R,6S)-2,6-dimethylmorpholin-4-yl]phenyl}carbamoyl)methyl]-N-methylprop-2-enamide]", "% of control remaining": 117.719}
{"smiles": "Cc1csc(Cl)c1NC(=O)CCl", "note": "[6-A06, 2-chloro-N-(2-chloro-4-methylthiophen-3-yl)acetamide]", "% of control remaining": 78.1951}
{"smiles": "CC1CCCN1C(=O)CNC(=O)CCl", "note": "(centres unmarked) [7-L12, 2-chloro-N-[2-(2-methylpyrrolidin-1-yl)-2-oxoethyl]acetamide]", "% of control remaining": 81.6327}
{"smiles": "CC(Cl)C(=O)Nc1c(Cl)cccc1Cl", "note": "(centres unmarked) [4-B16, 2-chloro-N-(2,6-dichlorophenyl)propanamide]", "% of control remaining": 98.7137}
{"smiles": "C=CC(=O)N1CCC(C(=O)Nc2ccccc2NS(C)(=O)=O)CC1", "note": "[3-C06, N-(2-methanesulfonamidophenyl)-1-(prop-2-enoyl)piperidine-4-carboxamide]", "% of control remaining": 101.001}
{"smiles": "C=CC(=O)NCCc1nc(-c2ccccc2)nn1C", "note": "[2-M12, N-[2-(1-methyl-3-phenyl-1H-1,2,4-triazol-5-yl)ethyl]prop-2-enamide]", "% of control remaining": 75.8921}
{"smiles": "O=C(CCl)NC(c1ccccc1)c1ccc(Cl)cc1", "note": "(centres unmarked) [4-G04, 2-chloro-N-[(4-chlorophenyl)(phenyl)methyl]acetamide]", "% of control remaining": 106.336}
{"smiles": "N#CC(=Cc1cccs1)C(=O)Nc1nccs1", "note": "[8-G13, 2-cyano-N-(1,3-thiazol-2-yl)-3-(thiophen-2-yl)prop-2-enamide]", "% of control remaining": 89.6266}
{"smiles": "C=CC(=O)N(C)C1CS(=O)(=O)C1", "note": "[1-E03, N-(1,1-dioxo-1lambda6-thietan-3-yl)-N-methylprop-2-enamide]", "% of control remaining": 105.846}
{"smiles": "C=CC(=O)NCCNC(=O)C1CC12CCSCC2", "note": "(centres unmarked) [2-O06, N-[2-({6-thiaspiro[2.5]octan-1-yl}formamido)ethyl]prop-2-enamide]", "% of control remaining": 98.5205}
{"smiles": "C=CC(=O)Nc1ccnn1C(C)C", "note": "[2-O07, N-[1-(propan-2-yl)-1H-pyrazol-5-yl]prop-2-enamide]", "% of control remaining": 112.446}
{"smiles": "C=CC(=O)N1CCC=C(c2cn(C(C)C)nn2)CC1", "note": "[3-D19, 1-{4-[1-(propan-2-yl)-1H-1,2,3-triazol-4-yl]-2,3,6,7-tetrahydro-1H-azepin-1-yl}prop-2-en-1-one]", "% of control remaining": 103.788}
{"smiles": "COc1cc(C=C(C#N)C(=O)NC2CCCCC2)cc(Cl)c1O", "note": "[8-H21, 3-(3-chloro-4-hydroxy-5-methoxyphenyl)-2-cyano-N-cyclohexylprop-2-enamide]", "% of control remaining": 104.564}
{"smiles": "N#CC(=Cc1ccccc1)C(=O)Nc1nncs1", "note": "[8-K09, 2-cyano-3-phenyl-N-(1,3,4-thiadiazol-2-yl)prop-2-enamide]", "% of control remaining": 97.2614}
{"smiles": "CC(Cl)C(=O)NCCCc1c[nH]c2ccc(F)cc12", "note": "(centres unmarked) [7-J09, 2-chloro-N-[3-(5-fluoro-1H-indol-3-yl)propyl]propanamide]", "% of control remaining": 96.7033}
{"smiles": "O=C(CCl)NCC1(c2ccccc2)CCC1", "note": "[4-O19, 2-chloro-N-[(1-phenylcyclobutyl)methyl]acetamide]", "% of control remaining": 89.9476}
{"smiles": "C=CC(=O)NCc1cn(C)nc1-c1ccccn1", "note": "[2-H03, N-{[1-methyl-3-(pyridin-2-yl)-1H-pyrazol-4-yl]methyl}prop-2-enamide]", "% of control remaining": 107.92}
{"smiles": "O=C(CCl)N(CC1CCCO1)C1CCS(=O)(=O)C1", "note": "(centres unmarked) [5-N16, 2-chloro-N-(1,1-dioxo-1lambda6-thiolan-3-yl)-N-[(oxolan-2-yl)methyl]acetamide]", "% of control remaining": 91.0747}
{"smiles": "COCCNC(=O)C(C#N)=Cc1cccc(O)c1", "note": "[9-H08, 2-cyano-3-(3-hydroxyphenyl)-N-(2-methoxyethyl)prop-2-enamide]", "% of control remaining": 102.472}
{"smiles": "C=CC(=O)N1CCC(C(=O)NCCC2(O)CCCOC2)CC1", "note": "(centres unmarked) [2-B04, N-[2-(3-hydroxyoxan-3-yl)ethyl]-1-(prop-2-enoyl)piperidine-4-carboxamide]", "% of control remaining": 110.009}
